{
  "source": "paper PMC4336329",
  "about": "(PLoS ONE, 2015)",
  "note": "The whole screen tested about 310,000 compounds, of which about 2,200 (0.71%) showed an effect of 50% or more. The effect is printed as a negative number. The list shows a part of the results.",
  "data": [
    {"molecular_target": "human ether-à-go-go-related gene (hERG) potassium channel (human, UniProt Q12809)", "sequence (Q12809 whole entry, looked up)": "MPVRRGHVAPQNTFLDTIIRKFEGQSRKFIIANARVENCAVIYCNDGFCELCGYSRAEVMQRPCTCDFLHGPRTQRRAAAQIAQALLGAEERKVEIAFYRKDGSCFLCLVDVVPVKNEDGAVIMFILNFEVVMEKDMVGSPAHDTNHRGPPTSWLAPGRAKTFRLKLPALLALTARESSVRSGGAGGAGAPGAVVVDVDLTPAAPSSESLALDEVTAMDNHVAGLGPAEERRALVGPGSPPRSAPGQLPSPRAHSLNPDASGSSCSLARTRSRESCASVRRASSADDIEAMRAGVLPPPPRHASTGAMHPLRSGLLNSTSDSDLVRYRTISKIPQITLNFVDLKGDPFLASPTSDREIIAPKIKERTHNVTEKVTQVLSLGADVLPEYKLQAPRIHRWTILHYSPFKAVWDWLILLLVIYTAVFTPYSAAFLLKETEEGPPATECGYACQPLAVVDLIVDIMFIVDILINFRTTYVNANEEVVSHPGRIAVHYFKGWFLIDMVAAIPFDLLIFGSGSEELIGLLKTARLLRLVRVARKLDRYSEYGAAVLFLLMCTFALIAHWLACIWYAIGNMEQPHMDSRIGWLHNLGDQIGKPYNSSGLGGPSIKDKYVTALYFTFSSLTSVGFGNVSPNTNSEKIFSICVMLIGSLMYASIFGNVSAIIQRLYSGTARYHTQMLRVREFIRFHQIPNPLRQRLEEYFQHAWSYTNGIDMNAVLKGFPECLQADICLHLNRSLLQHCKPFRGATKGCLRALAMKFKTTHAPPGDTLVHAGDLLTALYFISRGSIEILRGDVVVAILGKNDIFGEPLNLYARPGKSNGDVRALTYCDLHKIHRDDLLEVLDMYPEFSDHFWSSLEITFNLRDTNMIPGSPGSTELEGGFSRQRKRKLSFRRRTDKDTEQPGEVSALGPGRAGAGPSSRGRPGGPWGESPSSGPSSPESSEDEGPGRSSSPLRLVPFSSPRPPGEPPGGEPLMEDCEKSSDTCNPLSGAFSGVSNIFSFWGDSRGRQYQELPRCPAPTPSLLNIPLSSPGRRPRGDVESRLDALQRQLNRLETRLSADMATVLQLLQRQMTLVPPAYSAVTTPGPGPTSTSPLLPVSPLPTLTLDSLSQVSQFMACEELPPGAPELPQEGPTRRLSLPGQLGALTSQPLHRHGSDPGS", "assay": "primary screen, population patch clamp on CHO cells stably expressing hERG", "units": {"hERG current change (%, negative = inhibition) at 1uM": "%"}, "values": [
      {"molecule": "O=C(O)C1CCCCC1C(=O)Nc1ccc(Cl)cc1", "note": "(centres unmarked)", "hERG current change (%, negative = inhibition) at 1uM": 6.02},
      {"molecule": "O=C(Cn1ccc2ccccc2c1=O)NCC(=O)N1CCN(c2ccc(F)cc2)CC1", "hERG current change (%, negative = inhibition) at 1uM": 8.6},
      {"molecule": "COc1ccc(S(=O)(=O)Nc2cc(C)ccc2OC)cc1C", "hERG current change (%, negative = inhibition) at 1uM": 12.2},
      {"molecule": "Cc1ccc(CCNS(=O)(=O)c2cc3c(cc2C)NC(=O)CO3)cc1", "hERG current change (%, negative = inhibition) at 1uM": -10.7},
      {"molecule": "CCCCC(CC)CNC(=O)Cn1c(=O)[nH]c2ccsc2c1=O", "note": "(centres unmarked)", "hERG current change (%, negative = inhibition) at 1uM": 4.49},
      {"molecule": "COc1ccc(Nc2ncnc3ccc([N+](=O)[O-])cc23)c(OC)c1", "hERG current change (%, negative = inhibition) at 1uM": 9.8},
      {"molecule": "COC(=O)c1c(NC(NC(=O)C(C)(C)C)C(Cl)(Cl)Cl)sc2c1CCC2", "note": "(centres unmarked)", "hERG current change (%, negative = inhibition) at 1uM": 24.2},
      {"molecule": "CN1CCCC(OC(=O)c2cccc(Br)c2)C1.Cl", "note": "(centres unmarked)", "hERG current change (%, negative = inhibition) at 1uM": 12.7},
      {"molecule": "Cc1ccc(N2C(=O)NC(=O)/C(=C\\c3cn(CC(=O)O)c4ccccc34)C2=O)cc1", "hERG current change (%, negative = inhibition) at 1uM": 13.1},
      {"molecule": "O=C(Nc1ccc(N2CCN(Cc3ccccc3F)CC2)cc1)c1ccc([N+](=O)[O-])o1", "hERG current change (%, negative = inhibition) at 1uM": 10.1},
      {"molecule": "Cc1ccccc1C(=O)Nc1nc(=S)ss1", "hERG current change (%, negative = inhibition) at 1uM": 8.66},
      {"molecule": "c1ccc(C2Nc3ccccc3C3OCCCC23)cc1", "note": "(centres unmarked)", "hERG current change (%, negative = inhibition) at 1uM": 20.1},
      {"molecule": "COc1ccccc1-c1c(-c2ccc(OCC(=O)NN)cc2O)n[nH]c1C(F)(F)F", "hERG current change (%, negative = inhibition) at 1uM": 14.2},
      {"molecule": "COC(=O)c1cccc(C23CC4(C2)[C@H](CN(Cc2ccc(C(F)(F)F)cc2)[C@@H]4c2ccccc2)C3c2ccccc2)c1", "note": "(some centres unmarked)", "hERG current change (%, negative = inhibition) at 1uM": -12.6},
      {"molecule": "O=C1C(NS(=O)(=O)c2cccs2)=C(N2CCN(c3cccc(C(F)(F)F)c3)CC2)C(=O)c2ccccc21", "hERG current change (%, negative = inhibition) at 1uM": 9.08},
      {"molecule": "O=[N+]([O-])/C=C1/CCCCCN1", "hERG current change (%, negative = inhibition) at 1uM": 4.5},
      {"molecule": "COc1ccc(/C=C(\\NC(=O)c2ccccc2)C(=O)NCCN2CCOCC2)cc1OC", "hERG current change (%, negative = inhibition) at 1uM": 16.4},
      {"molecule": "CCOc1cc(C(c2c(C)[nH][nH]c2=O)c2c(C)[nH][nH]c2=O)ccc1OCc1ccc([N+](=O)[O-])cc1", "hERG current change (%, negative = inhibition) at 1uM": 1.55},
      {"molecule": "COc1ccc2c(c1)CCc1cc(C(=O)N3CCN(c4ccc(N5CCOCC5)nn4)CC3)sc1-2", "hERG current change (%, negative = inhibition) at 1uM": 14.2},
      {"molecule": "CC(=O)c1ccccc1OC(=O)CCN1C(=O)c2ccccc2C1=O", "hERG current change (%, negative = inhibition) at 1uM": 14.4},
      {"molecule": "CCNc1nc(NC(C)C)nc(Oc2ccc(/C=N/O)cc2)n1", "hERG current change (%, negative = inhibition) at 1uM": 4.01},
      {"molecule": "CC1Sc2ccc(S(=O)(=O)N(C)Cc3ccccc3)cc2NC1=O", "note": "(centres unmarked)", "hERG current change (%, negative = inhibition) at 1uM": 9.87},
      {"molecule": "O=S(=O)(NCC1(N2CCOCC2)CCCCC1)c1ccc(F)c(F)c1F", "hERG current change (%, negative = inhibition) at 1uM": 3.35},
      {"molecule": "O=S(=O)(c1ccc(Cl)cc1)N1CCN(C2CCN(Cc3ccccc3)CC2)CC1", "hERG current change (%, negative = inhibition) at 1uM": -59},
      {"molecule": "Cc1ccc(NC(=O)CN(C)C(=O)COC(=O)COc2ccc(C#N)cc2)cc1", "hERG current change (%, negative = inhibition) at 1uM": 3.48},
      {"molecule": "c1ccc2cc(OCc3nc4ccccc4[nH]3)ccc2c1", "hERG current change (%, negative = inhibition) at 1uM": 1.42},
      {"molecule": "CCOc1ccc(COC(=O)C2CC(=O)N(CCc3ccccc3)C2)cc1OC", "note": "(centres unmarked)", "hERG current change (%, negative = inhibition) at 1uM": -8.69},
      {"molecule": "CCOC(=S)SCC(=O)N1CCc2cc(OC)c(OC)cc2C1C1C(=O)CC(C)(C)CC1=O", "note": "(centres unmarked)", "hERG current change (%, negative = inhibition) at 1uM": 5.81},
      {"molecule": "COc1ccc(N(CCC(=O)NCCc2ccccc2)S(=O)(=O)c2ccc(C)cc2C)cc1", "hERG current change (%, negative = inhibition) at 1uM": 4.5},
      {"molecule": "CC(C)Cc1cc(CNC(=O)C2CCC(=O)N(Cc3cccc(C(F)(F)F)c3)C2)on1", "note": "(centres unmarked)", "hERG current change (%, negative = inhibition) at 1uM": 10.2},
      {"molecule": "Cc1cc(N2C(=O)NC(=O)CC2C)c(C)cc1C(C)C", "note": "(centres unmarked)", "hERG current change (%, negative = inhibition) at 1uM": 7.98},
      {"molecule": "O=C(N/N=C/c1ccc(Br)s1)c1cccs1", "hERG current change (%, negative = inhibition) at 1uM": 7.1},
      {"molecule": "Cc1nc2c(sc3nc(N4CCOCC4)c4c(c32)CC(C)(C)OC4)c(-c2ccc(Cl)cc2)c1C(=O)O", "hERG current change (%, negative = inhibition) at 1uM": 0.131},
      {"molecule": "CN1CCN(CCOc2cccc(Cl)c2)CC1.Cl", "hERG current change (%, negative = inhibition) at 1uM": 7.74},
      {"molecule": "COc1ccc(CCNC(=O)c2cccn2C)cc1", "hERG current change (%, negative = inhibition) at 1uM": 15.7},
      {"molecule": "O=C(CC1Sc2ccccc2NC1=O)OCc1cc(=O)oc2cc(O)ccc12", "note": "(centres unmarked)", "hERG current change (%, negative = inhibition) at 1uM": -6.35},
      {"molecule": "Cc1c(NC(=O)CN2CCC(C(N)=O)CC2)cccc1[N+](=O)[O-]", "hERG current change (%, negative = inhibition) at 1uM": 7.54},
      {"molecule": "COc1ccc(Cl)c(Cn2c(NCCCO)nc3c2c(=O)n(C)c(=O)n3C)c1", "hERG current change (%, negative = inhibition) at 1uM": 10.9},
      {"molecule": "Cc1cc2nc(-c3cccnc3SCC(=O)NC3CC3)[nH]c2cc1C", "hERG current change (%, negative = inhibition) at 1uM": 12.5},
      {"molecule": "CC(C)c1ccccc1NC(=O)c1ccc2ncsc2c1", "hERG current change (%, negative = inhibition) at 1uM": 10.4},
      {"molecule": "Cc1ccccc1C([O-])=Nc1ccc[n+](-c2nc3ccccc3nc2NS(=O)(=O)c2ccccc2)c1", "hERG current change (%, negative = inhibition) at 1uM": 9.51},
      {"molecule": "CCOC(=O)c1c(C)[nH]c(N=Nc2ccccc2)c1C", "hERG current change (%, negative = inhibition) at 1uM": 21.7},
      {"molecule": "Cc1ccc(S(=O)(=O)N(CC(=O)O)Cc2ccccc2F)cc1", "hERG current change (%, negative = inhibition) at 1uM": 6.83},
      {"molecule": "Cc1ccc2c(CN3CCCCC3)cc(=O)oc2c1", "hERG current change (%, negative = inhibition) at 1uM": 6.38}
    ]}
  ]
}
